Laboratory results as given in US20150320880A1, “ANTIBODY DRUG CONJUGATES” (NOVARTIS AG, priority 2013, published 2015).

How the values were obtained:
human cKIT ECD = biological target: T1, human cKIT ECD (Homo sapiens, UniProt P10721); experiment: SPR (Biacore 2000) affinity measurement; format: binding; conditions: 25° C.
T1 construct: Human cKIT tr. variant 2, residues 26-520-TAG; made in house; host or cells: HEK293 derived cell lines (293FS), transient transfection
Experimental: (§1) Affinity of the antibodies to cKIT species orthologues and also to cKIT was determined using SPR technology using a Biacore® 2000 instrument (GE Healthcare, Pittsburgh, Pa.) and with CM5 sensor chips.
(§2) Briefly, HBS-P (0.01 M HEPES, pH 7.4, 0.15 M NaCl, 0.005% Surfactant P20) supplemented with 2% Odyssey® blocking buffer (Li-Cor Biosciences, Lincoln, Nebr.) was used as the running buffer for all the experiments. The immobilization level and analyte interactions were measured by response unit (RU). Pilot experiments were performed to test and confirm the feasibility of the immobilization of the anti-human Fc antibody (Catalog number BR100839, GE Healthcare, Pittsburgh, Pa.) and the capture of the test antibodies.
(§3) For kinetic measurements, the experiments were performed in which the antibodies were captured to the sensor chip surface via the immobilized anti-human Fc antibody and the ability of the cKIT proteins to bind in free solution was determined Briefly, 25 μg/ml of anti-human Fc antibody at pH 5 was immobilized on a CM5 sensor chip through amine coupling at flow rate of 5 μl/minute on all two flow cells to reach 10,500 RUs. 0.1-1 μg/ml of test antibodies were then injected at 10 μl/min for 1 minute. Captured levels of the antibodies were generally kept below 200 RUs. Subsequently, 3.125-50 nM of cKIT receptor extracellular domains (ECD) were diluted in a 2-fold series and injected at a flow rate of 40 μl/min for 3 min over both reference and test flow cells. Table of tested ECDs is listed below. Dissociation of the binding was followed for 10 min. After each injection cycle, the chip surface was regenerated with 3 M MgCl2 at 10 μl/min for 30 s.

mouse cKIT ECD = experiment: SPR (Biacore 2000) affinity measurement; format: binding; conditions: 25° C.
Experimental: as §1, §2, §3

[1] = test system: GIST-T1, GIST430, NCI-H526, NCI-H1048, CMK11-5 and Uke-1 cells; experiment: Proliferation assay of cKIT-MCC-DM1 ADCs on GIST, SCLC and AML cell lines, Example 11; format: cell-based; conditions: 5 to 8 days, IgG-MCC-DM1 conjugate as control (FIGS. 4-9)
Experimental: Following conjugation to the MCC-DM1 linker-payload, the ability of the antibody drug conjugates (ADCs) to inhibit the proliferation of AML, SCLC and GIST cell lines was determined. For a listing of the cells used in these experiments by supplier see Example 10 above.
Briefly, cells were cultured in a tissue culture incubator at 37° C. with 5% CO2 in culture medium as recommended by the supplier. On the day of the assay, cells were washed twice with PBS (Cellgro, Cat #21-031-CV, Corning Tewksbury, Mass.), prior to being treated with 0.1% trypsin-EDTA (in-house technical services) for 5 min and resuspended in the recommended culture medium. Cells were then counted and seeded in 96 well plates (Costar catalog #3603, Corning, Tewksbury, Mass.) at densities of 5,000 cells/well for AML and SCLC cells and 10,000 cells/well for GIST cells in 100 μl of cell culture medium. […] Following this incubation, 100 μl/well of Cell titer Glo® reagent (Promega catalog # G7573, Promega, Madison, Wis.) was added to the day 0 plates, which were then shaken gently for 2 min, incubated for 10 min, and the resulting luminescence intensity was measured using a Perkin Elmer Wallac Microbeta® Trilux plate reader (Perkin Elmer, Waltham, Mass.). […] Following this incubation period, relative cell viability was determined via the addition of Cell titer Glo® reagent as described above. […]

MO7e cells grown in SCF = experiment: Mo7e proliferation in presence of SCF, Example 17; format: cell-based; conditions: 10 ng/ml SCF, 5 days, 0.0009-68 nM
Experimental: To evaluate the potential antagonistic properties of the naked antibodies and the ability of the antibody drug conjugates (ADCs) to inhibit the proliferation of a cKIT-expressing cell line, MO7e (DSMZ, Catalog # ACC-104, Braunschweig, Del.) were grown in the presence or absence of cKIT ligand, Stem Cell Factor (SCF), for survival. MO7e cells were grown in either 10 ng/ml human granulocyte-macrophage colony-stimulating factor GM-CSF (R&D Systems Cat#215-GM, Minneapolis, Minn.) or 10 ng/ml human Stem Cell Factor SCF (R&D Systems Cat#255-SC) prior to seeding in 96 well plates (Costar Cat #3904, Corning, Tewksbury, Mass.) at 5000 cells/well in 100 μl dilution medium. A duplicate plate was generated for a day 0 measurement and all plates were incubated in a tissue culture incubator at 37° C. with 5% CO2 overnight. […] Assay plates were shaken gently for 20 min and the resulting luminescence intensity was measured using a Perkin Elmer 1450 Microbeta TriLux® plate reader (Perkin Elmer, Waltham, Mass.). […] Following this incubation period, relative cell viability was determined via the addition of Cell titer Glo reagent as described above. The effect of the ADCs on cell proliferation was calculated using the average of the duplicates as follows: (% Inhibition=(ADC or Ab treated)/(untreated)*100) The % inhibition data was fitted to a 4-parameter logistic equation and IC50 values were determined.

[2] = test system: cKIT phosphorylation in Mo7e (wild type cKIT) and GIST T-1 (mutant cKIT) cells; experiment: Western blot of cKIT phosphorylation and downstream signaling (agonist evaluation); format: cell-based; conditions: 5 μg/ml, 15 minutes
Experimental: One well was designated as untreated (UT). Cells were harvested in 1 ml PBS. […] Lysates were then spun down for 40 mins at 12,000 rpm at 4° C. […] After protein transfer to membrane blots, membranes were blocked in TBST-5% milk at room temperature for 1 hour and then probed with primary antibodies overnight at 4° C. Blots were washed in TBST (4×5 mins) on the next day. Blots were incubated in the secondary antibody (goat-anti rabbit-HRP 1:30,000, Santa Cruz) for 1 hr at room temperature. Blots were washed in TBST (4×5 mins) and developed.

[3] = test system: surface cKIT on GIST-T1 cells; experiment: cKIT Ab-mediated internalization by flow cytometry; format: cell-based; conditions: 10 μg/ml, 30 min to 24 hr at 37° C.
Experimental: The kinetics of cKIT antibody mediated internalization was evaluated by treating with antibody in a cell monolayer using a temperature shift method and flow cytometry readout. GIST-T1 (kindly provided by Dr. Takahiro Taguchi, Kochi U., Japan) cells were seeded at 2.5×10E5 cells/well in five 12-well tissue culture treated plates (BD Falcon 353043). The cells were incubated in a tissue culture incubator at 37° C. with 5% CO2 overnight. The following day medium was removed and replaced with 450 μl fresh medium. […] All cells were incubated for 1 hr on ice, followed by two washes with 1 mL 1× Phosphate buffered saline (PBS) and resuspended in 500 μl cell culture medium. Plates #2-5 were transferred to 37° C. and harvested at time points; 30 min, 2 hr, 4 hr and 24 hr at 37° C. with 5% CO2. 100 μl of cell dissociation buffer (Gibco Cat#13150-016, Life Technologies, Carlsbad, Calif.) was added to plate#1 (4° C. binding control) and incubated at 37° C. until cells were detached. Cells were neutralized with 100 μl of medium and transferred to a 96 well V-bottom tissue culture treated plate (Costar 3894). […] The following day, all samples were analyzed using the BD FACSCanto II® equipment using a HTS system (BD Biosciences, San Jose, Calif.). Samples were analyzed with FlowJo software to obtain the Geometric Mean values of fluorescence for the Phycoerythrin channel. […]

T1 sequence (P10721 with tags, fused parts or gaps isoform P10721-2): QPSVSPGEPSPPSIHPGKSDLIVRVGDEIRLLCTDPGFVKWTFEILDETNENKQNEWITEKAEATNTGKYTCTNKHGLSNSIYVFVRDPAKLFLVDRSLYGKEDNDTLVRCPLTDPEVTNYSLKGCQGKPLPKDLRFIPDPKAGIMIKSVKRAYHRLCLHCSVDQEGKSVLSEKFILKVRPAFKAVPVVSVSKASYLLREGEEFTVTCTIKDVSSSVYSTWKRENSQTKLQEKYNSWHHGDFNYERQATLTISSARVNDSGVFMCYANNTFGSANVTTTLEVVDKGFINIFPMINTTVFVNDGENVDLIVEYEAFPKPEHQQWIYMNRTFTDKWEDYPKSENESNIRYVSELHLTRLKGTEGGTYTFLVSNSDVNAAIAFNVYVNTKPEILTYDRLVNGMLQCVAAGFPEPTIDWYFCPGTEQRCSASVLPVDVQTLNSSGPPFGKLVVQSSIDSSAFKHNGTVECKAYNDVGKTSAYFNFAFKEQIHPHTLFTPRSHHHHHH

Molecule	Affinity human cKIT (nM) (human cKIT ECD)	Affinity mouse cKIT (nM) (mouse cKIT ECD)	reduction of cell proliferation [1]	inhibition of cell proliferation (MO7e cells grown in SCF)	downstream signaling (phospho ERK, phospho AKT) [2]	phosphorylation of cKIT ([2]; absence of ligand (SCF))	internalization of surface cKIT [3]
NEG024 (antibody) heavy: EVQLVESGGGLVQPGGSLRLSCAASGFTFSDYYMAWVRQAPGKGLEWVANINQIAGSTYYLDSVRGRFTISRDNAKNSLYLQMNSLRAEDTAVYYCARGDYYGTTYWYFDVWGQGTTVTVSSASTKGPSVFPLAPSSKSTSGGTAALGCLVKDYFPEPVTVSWNSGALTSGVHTFPAVLQSSGLYSLSSVVTVPSSSLGTQTYICNVNHKPSNTKVDKRV[human IgG1 Fc omitted here] light: EIVMTQSPATLSLSPGERATLSCRASQDISNYLNWYQQKPGQAPRLLIYYTSRLQSGIPARFSGSGSGTDYTLTISSLEPEDFAVYYCQQGKKLWSFGGGTKVEIKRTVAAPSVFIFPPSDEQLKSGTASVVCLLNNFYPREAKVQWKVDNALQSGNSQESVTEQDSKDSTYSLSSTLTLSKADYEKHKVYACEVTHQGLSSPVTKSFNRGEC	nanomolar level	Not reactive	very effective in reducing cell proliferation	do not inhibit cell proliferation			
20376 (antibody) heavy: QVQLVQSGAEVKKPGSSVKVSCKASGGTFSSYAISWVRQAPGQGLEWMGGIIPMSGRTTYAQKFQGRVTITADESTSTAYMELSSLRSEDTAVYYCARDYGPEAPDYGQSTSYFWYYAFDPWGQGTLVTVSSASTKGPSVFPLAPSSKSTSGGTAALGCLVKDYFPEPVTVSWNSGALTSGVHTFPAVLQSSGLYSLSSVVTVPSSSLGTQTYICNVNHKPSNTKVDKRV[human IgG1 Fc omitted here] light: DIELTQPPSVSVSPGQTASITCSGDNIPSYFVHWYQQKPGQAPVLVIYDDNDRPSGIPERFSGSNSGNTATLTISGTQAEDEADYYCSSWDQDTVVFGGGTKLTVLGQPKAAPSVTLFPPSSEELQANKATLVCLISDFYPGAVTVAWKADSSPVKAGVETTTPSKQSNNKYAASSYLSLTPEQWKSHRSYSCQVTHEGSTVEKTVAPTECS	nanomolar level	cross reacted with mouse			downstream signaling pathways are not affected	can mediate phosphorylation of cKIT in the absence of ligand (SCF)	rapidly internalized
